Source: the supplement of paper PMC3334620
In all, about 33,000 sequences were measured (“E-score (-0.5 to 0.5)”: median about -0.056, highest 2% from about 0.38 on). Some of the results follow.

molecular target: Stb4 (UniProt P50104); test: PBM E-score (8-mer binding enrichment) (E-score (-0.5 to 0.5)); higher = stronger / more preferred TF binding; most listed sequences are background and not binding sites; conditions: protein concentration: 200 nM; construct: GST-DNA-binding domain
Experimental: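 Universal 'all 10-mer' protein binding microarrays (Agilent AMADID 015681) probed with GST-tagged S. cerevisiae TFs (full-length or DBD) made by in vitro transcription/translation (PURExpress), about 100-200 nM. Bound TF was detected with fluorescent anti-GST. Each ungapped 8-mer (which stands for itself and its reverse complement) is scored by the PBM enrichment score (E-score), a modified Wilcoxon-Mann-Whitney statistic from -0.5 to +0.5, computed with the Universal PBM Analysis Suite. Scale: above 0.35 generally sequence-specific binding.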

Sequence | PBM E-score
GATGCTCA | 0.0839
ATTCTGCG | -0.0218
TACGTCCA | -0.3
ACGGCGAA | 0.0391
CATGAAAC | -0.0166
ATCTGTAC | 0.155
CCCTGGTA | -0.182
GTCGACGA | 0.0397
CAACCTAA | -0.227
GAAAGGCA | 0.0635
GGAGTGGA | -0.0326
CTGGTGCC | -0.131
TGGACGAA | -0.284
ACGCCCGT | 0.168
CGTTGAGC | -0.0224
ATACCATA | -0.239
AAATAACT | -0.0152
CGACACCG | 0.272
AGCTATGG | -0.00676
CATTAAGG | -0.125
CAGCTATG | -0.417
CATGGACA | -0.261
CAGTCATA | -0.0983
TAGGGCAA | -0.0403
ACCCGACC | 0.382

Sequence | PBM E-score
GATCGACC | 0.207
CCGCTTGA | 0.0378
GCGTGGCA | -0.123
AACAGGCG | -0.093
CAGTGTTA | 0.0292
ATAATGTA | -0.141
ACTCTACG | -0.0896
ACAGCGTA | -0.143
GAAGGACA | 0.0326
GGAAACCA | 0.104
ACTTGTCG | 0.109
CAATCAAC | 0.0318
GGCCTGAA | -0.0159
AGTTTCTC | -0.00483
AAATGTAA | 0.0853
CTACCCAA | -0.209
GTCGCGCA | -0.0321
CATGTCCA | -0.115
CTACAAAG | -0.0119
GATCAGAA | -0.21
AGTGACAG | -0.0545
AAGGGCAA | 0.158
CATTCAGC | -0.116
ATACCCCG | 0.205
GCTAAAGC | -0.0776

Sequence | PBM E-score
CCTAGATC | -0.243
ATTATTGG | 0.0336
ACTCTGCA | -0.0748
CGTACAGC | 0.109
CAGATCGG | 0.235
GCGAGCCA | -0.083
CCCGTAAG | 0.0679
ACCATTTC | -0.0482
AACCCATC | -0.0878
ATGGACAT | -0.105
CCTCTTTA | -0.157
GTAGTGTA | -0.17
GTTATTCA | -0.0861
ATGCACTA | -0.137
AGCGATAT | -0.172
GCCCTCCC | 0.0602
CCAATTGA | -0.286
CAAAATAC | -0.00837
ATCACCTG | -0.00622
CGCCACCC | -0.0935
GGCAAGAC | 0.0454
TAAGTGAA | 0.00631
GACCCAAA | -0.0669
GCACTTCC | 0.0806
GCAATCAC | 0.186

Sequence | PBM E-score
AATGAGGC | -0.312
ATTCCCAC | -0.124
AAAGGCGG | -0.0456
TAGGCAAA | -0.231
AATAGGTC | -0.0225
ACCGATTA | 0.326
AAACCACT | -0.209
GCCCGGAC | 0.229
AATAGCGA | -0.136
CTGATTGA | -0.225
CCTCCGAA | 0.352
GAACAGGC | -0.0136
AATACCTG | -0.0376
ACTCGCTA | 0.00234
ACCTGATC | -0.104
TATCAAGA | -0.216
AACGCTTG | -0.176
TGTATAAA | -0.0485
AAACCCTC | 0.045
ACAGAACC | -0.125
TACTATAA | -0.141
CAGCAACC | -0.00894
CGAGAGCG | 0.0945
ACCCATAT | -0.117
GTTTACGA | -0.133

Sequence | PBM E-score
AACGATGA | -0.0144
CCGCTCCG | 0.298
CAGGCGCG | -0.222
ACTCGGAG | 0.362
ACATTTAA | 0.0306
GCCCGCAC | 0.0703
ACGATATG | -0.0289
ATGTACGC | -0.243
CTGACTCC | -0.0827
GCACGGTA | -0.04
CTCTTAAC | -0.0542
ACGAGAAC | -0.149
GCCTGGGA | -0.135
ACTGATCG | -0.206
ACGGCAGA | 0.156
CATCGAAC | -0.173
AAACTACA | 0.0123
ATCATGTG | -0.135
AACTTAGT | 0.0161
GGCTCCCC | 0.0286
ATAATGCG | 0.0595
CGGGATAC | 0.32
AGTTCCTA | 0.00074
GCCATGGC | -0.361
ACAGAAGC | -0.153

Sequence | PBM E-score
CTCCCAGA | -0.263
AGCACCCA | -0.0678
ATACGAAC | -0.0799
GAGGGGGA | -0.185
CGCACGAC | -0.0583
ATTGCACA | -0.151
CGGGGAGC | 0.179
GAGAAGTA | -0.129
ACGCACAC | -0.0434
AGTGTGAT | -0.0318
ATAAGCGA | 0.0555
CGTCACAG | -0.126
CCTGTACC | -0.0584
AATGAGAA | -0.0737
CCGACAAC | 0.283
CCTGTCAC | -0.0895
AGTCGAAT | -0.0922
ACCCACCT | -0.0657
AACCGTTC | 0.284
AGGTGGGC | -0.176
GTGAAGTA | -0.0455
CCCGAGGG | 0.404
TATAACAA | -0.0542
ATTTCGTC | -0.103
CTAAACGA | -0.147

Sequence | PBM E-score
CTTCTCGA | -0.318
GACCTAAC | 0.00842
AAGTGTGT | -0.259
GGAAAGGA | 0.205
AACGCCGG | 0.213
ACGCGATC | 0.0854
ATGCCCAA | -0.0456
GCCGATGA | 0.295
GGCTTCAC | 0.0049
GAGACACC | -0.122
AGTCTGAT | -0.142
CGAGGACA | 0.0556
ATCTGGTG | -0.152
CATATAGA | -0.244
ATGTTGTA | -0.196
AGCTGCTG | -0.233
CCGCCGGC | 0.314
CCGTCAGA | 0.0622
ACACAAAA | 0.0149
CTTTCCCC | 0.12
ACTGAAAC | 0.028
ACAGTAGT | -0.171
